Data from article PMC9228641 (Journal of medicinal chemistry, 2021).

Tested on: NS3/4A protease D168A variant
Details: compared to the non-fluorinated parent 22

COc1ccc2nc(C)c(O[C@@H]3C[C@H]4C(=O)N[C@]5(C(=O)NS(=O)(=O)C6(C)CC6)C[C@H]5C=CCCCCC[C@H](NC(=O)OC5(C(F)(F)F)CCC5)C(=O)N4C3)nc2c1 (stereo in doubt) [Compound 26, 1-(Trifluoromethyl)cyclobutyl ((2R,6S,13aS,14aR,16aS,Z)-2-((7-methoxy-3-methylquinoxalin-2-yl)oxy)-14a-(((1-methylcyclopropyl)sulfonyl)carbamoyl)-5,16-dioxo-1,2,3,5,6,7,8,9,10,11,13a,14,14a,15,16,16a-hexadecahydrocyclopropa[e]pyrrolo[1,2-a][1,4]diazacyclopentadecin-6-yl)carbamate]
fold improvement in inhibitory potency against the D168A protease variant: 4 fold
